Results taken from publication PMC9911399, “Two distinct binding modes provide the RNA-binding protein RbFox with extraordinary sequence specificity”.
Positions count from the first letter of the chain named. Some of the results follow.

T1: RBFOX1 RRM (Homo sapiens, UniProt Q9NWB1 109-208)
T1 sequence: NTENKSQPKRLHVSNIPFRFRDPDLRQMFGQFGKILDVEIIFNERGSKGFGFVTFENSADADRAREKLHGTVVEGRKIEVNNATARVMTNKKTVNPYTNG

B1: ACAGCUG (DNA:RNA)
RNA: GGGAGACCGGAAUUCAGAUUGUCCACAGCUGUUAAAUCCCGUCGUAGCCACCA
DNA 1: CAATCTGAATTCCGGTCTCCC
DNA 2: TGGTGGCTACGACGGGATT
B2: GGAACAA (DNA:RNA)
RNA: B1 RNA with A25G, C26G, G28A, U30A, G31A
DNA 1: CAATCTGAATTCCGGTCTCCC
DNA 2: TGGTGGCTACGACGGGATT
B3: AGUUUUU (DNA:RNA)
RNA: B1 RNA with C26G, A27U, G28U, C29U, G31U
DNA 1: CAATCTGAATTCCGGTCTCCC
DNA 2: TGGTGGCTACGACGGGATT
B4: UACUUCA (DNA:RNA)
RNA: GGGAGACCGGAAUUCAGAUUGUCCUACUUCAUUAAAUCCCGUCGUAGCCACCA
DNA 1: CAATCTGAATTCCGGTCTCCC
DNA 2: TGGTGGCTACGACGGGATT
B5: UGAGGCC (DNA:RNA)
RNA: B1 RNA with A25U, C26G, C29G, U30C, G31C
DNA 1: CAATCTGAATTCCGGTCTCCC
DNA 2: TGGTGGCTACGACGGGATT
B6: CCCUGUA (DNA:RNA)
RNA: B4 RNA with U25C, A26C, U29G, C30U
DNA 1: CAATCTGAATTCCGGTCTCCC
DNA 2: TGGTGGCTACGACGGGATT
B7: GAGCCAU (DNA:RNA)
RNA: B1 RNA with A25G, C26A, A27G, G28C, U30A, G31U
DNA 1: CAATCTGAATTCCGGTCTCCC
DNA 2: TGGTGGCTACGACGGGATT
B8: CGGUAGA (DNA:RNA)
RNA: B4 RNA with U25C, A26G, C27G, U29A, C30G
DNA 1: CAATCTGAATTCCGGTCTCCC
DNA 2: TGGTGGCTACGACGGGATT
B9: UAAGUUG (DNA:RNA)
RNA: B1 RNA with A25U, C26A, C29U
DNA 1: CAATCTGAATTCCGGTCTCCC
DNA 2: TGGTGGCTACGACGGGATT
B10: UCAUCCC (DNA:RNA)
RNA: B1 RNA with A25U, G28U, U30C, G31C
DNA 1: CAATCTGAATTCCGGTCTCCC
DNA 2: TGGTGGCTACGACGGGATT
B11: UGUAGGA (DNA:RNA)
RNA: B4 RNA with A26G, C27U, U28A, U29G, C30G
DNA 1: CAATCTGAATTCCGGTCTCCC
DNA 2: TGGTGGCTACGACGGGATT
B12: AAGAUAU (DNA:RNA)
RNA: B4 RNA with U25A, C27G, U28A, C30A, A31U
DNA 1: CAATCTGAATTCCGGTCTCCC
DNA 2: TGGTGGCTACGACGGGATT
B13: CAAAACG (DNA:RNA)
RNA: B1 RNA with A25C, C26A, G28A, C29A, U30C
DNA 1: CAATCTGAATTCCGGTCTCCC
DNA 2: TGGTGGCTACGACGGGATT
B14: GUAAGUG (DNA:RNA)
RNA: B1 RNA with A25G, C26U, G28A, C29G
DNA 1: CAATCTGAATTCCGGTCTCCC
DNA 2: TGGTGGCTACGACGGGATT
B15: AUGGGCG (DNA:RNA)
RNA: B1 RNA with C26U, A27G, C29G, U30C
DNA 1: CAATCTGAATTCCGGTCTCCC
DNA 2: TGGTGGCTACGACGGGATT
B16: AGGUUGC (DNA:RNA)
RNA: B4 RNA with U25A, A26G, C27G, C30G, A31C
DNA 1: CAATCTGAATTCCGGTCTCCC
DNA 2: TGGTGGCTACGACGGGATT
B17: GAUAUCC (DNA:RNA)
RNA: B4 RNA with U25G, C27U, U28A, A31C
DNA 1: CAATCTGAATTCCGGTCTCCC
DNA 2: TGGTGGCTACGACGGGATT
B18: UGGCUAU (DNA:RNA)
RNA: B4 RNA with A26G, C27G, U28C, C30A, A31U
DNA 1: CAATCTGAATTCCGGTCTCCC
DNA 2: TGGTGGCTACGACGGGATT
B19: CUCUUGA (DNA:RNA)
RNA: B4 RNA with U25C, A26U, C30G
DNA 1: CAATCTGAATTCCGGTCTCCC
DNA 2: TGGTGGCTACGACGGGATT
B20: GUCUAAG (DNA:RNA)
RNA: B4 RNA with U25G, A26U, U29A, C30A, A31G
DNA 1: CAATCTGAATTCCGGTCTCCC
DNA 2: TGGTGGCTACGACGGGATT
B21: UGUAUUU (DNA:RNA)
RNA: B4 RNA with A26G, C27U, U28A, C30U, A31U
DNA 1: CAATCTGAATTCCGGTCTCCC
DNA 2: TGGTGGCTACGACGGGATT
B22: AGGGUAG (DNA:RNA)
RNA: B1 RNA with C26G, A27G, C29U, U30A
DNA 1: CAATCTGAATTCCGGTCTCCC
DNA 2: TGGTGGCTACGACGGGATT
B23: UUCCAGU (DNA:RNA)
RNA: B4 RNA with A26U, U28C, U29A, C30G, A31U
DNA 1: CAATCTGAATTCCGGTCTCCC
DNA 2: TGGTGGCTACGACGGGATT
B24: CGAACAU (DNA:RNA)
RNA: B1 RNA with A25C, C26G, G28A, U30A, G31U
DNA 1: CAATCTGAATTCCGGTCTCCC
DNA 2: TGGTGGCTACGACGGGATT
B25: AAUCAUU (DNA:RNA)
RNA: B1 RNA with C26A, A27U, G28C, C29A, G31U
DNA 1: CAATCTGAATTCCGGTCTCCC
DNA 2: TGGTGGCTACGACGGGATT
B26: AUGUUAC (DNA:RNA)
RNA: B4 RNA with U25A, A26U, C27G, C30A, A31C
DNA 1: CAATCTGAATTCCGGTCTCCC
DNA 2: TGGTGGCTACGACGGGATT
B27: ACUCUCC (DNA:RNA)
RNA: B1 RNA with A27U, G28C, C29U, U30C, G31C
DNA 1: CAATCTGAATTCCGGTCTCCC
DNA 2: TGGTGGCTACGACGGGATT
B28: UAUGGCG (DNA:RNA)
RNA: B4 RNA with C27U, U28G, U29G, A31G
DNA 1: CAATCTGAATTCCGGTCTCCC
DNA 2: TGGTGGCTACGACGGGATT
B29: AAACGUG (DNA:RNA)
RNA: B1 RNA with C26A, G28C, C29G
DNA 1: CAATCTGAATTCCGGTCTCCC
DNA 2: TGGTGGCTACGACGGGATT
B30: UCCUGUU (DNA:RNA)
RNA: B4 RNA with A26C, U29G, C30U, A31U
DNA 1: CAATCTGAATTCCGGTCTCCC
DNA 2: TGGTGGCTACGACGGGATT
B31: AAACGGG (DNA:RNA)
RNA: B1 RNA with C26A, G28C, C29G, U30G
DNA 1: CAATCTGAATTCCGGTCTCCC
DNA 2: TGGTGGCTACGACGGGATT

target: T1, RBFOX1 RRM; test: EMSA; HiTS-Eq, 1 nM pool, 10 min; buffer printed only for the single-RNA assays: 10 mM Tris pH 7.5, 150 mM NaCl, 3.4 mM EDTA, 0.001% NP-40, 30 C; settings: tags: His6 N-terminal (pET28a); label: 5' 32P
Summary of the method: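 Purified RbFox RRM, wild type or mutant, was incubated for 10 min in 50 µL with 1 nM of a 5′-radiolabelled RNA pool carrying 7 randomized nucleotides, whose flanks were annealed to DNA oligonucleotides, over a series of increasing protein concentrations. Unbound RNA was resolved on 8% native PAGE, cut out, reverse-transcribed, barcoded by PCR and sequenced on an Illumina HiSeq 2500. Relative association constants were derived from changes in read counts for each RNA species versus the control reaction and normalised to the cognate motif.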

Compared with B1, B2 is lower in binding signal: 0.00547 KA relative to UGCAUGU for the first, 0.00387 KA relative to UGCAUGU for the second.

First: B3
Second: B4
The binding signal of the first is higher: 0.0104 KA relative to UGCAUGU for the first, 0.0037 KA relative to UGCAUGU for the second.

Compared with B5, B6 is lower in binding signal: 0.0132 KA relative to UGCAUGU for the first, 0.00209 KA relative to UGCAUGU for the second.

First: B7
Second: B8
The binding signal of the first is lower: 0.00541 KA relative to UGCAUGU for the first, 0.0125 KA relative to UGCAUGU for the second.

Compared with B9, B10 is lower in binding signal: 0.0177 KA relative to UGCAUGU for the first, 0.00242 KA relative to UGCAUGU for the second.

First: B11
Second: B12
The binding signal of the first is higher: 0.00961 KA relative to UGCAUGU for the first, 0.00164 KA relative to UGCAUGU for the second.

First: B13
Second: B14
The binding signal of the first is lower: 0.000793 KA relative to UGCAUGU for the first, 0.00969 KA relative to UGCAUGU for the second.

Compared with B15, B16 is lower in binding signal: 0.0219 KA relative to UGCAUGU for the first, 0.0211 KA relative to UGCAUGU for the second.

Compared with B17, B18 is higher in binding signal: 0.00779 KA relative to UGCAUGU for the first, 0.0169 KA relative to UGCAUGU for the second.

First: B19
Second: B20
The binding signal of the first is higher: 0.0144 KA relative to UGCAUGU for the first, 0.00938 KA relative to UGCAUGU for the second.

Compared with B21, B22 is higher in binding signal: 0.0114 KA relative to UGCAUGU for the first, 0.0176 KA relative to UGCAUGU for the second.

First: B23
Second: B24
The binding signal of the first is higher: 0.0069 KA relative to UGCAUGU for the first, 0.0043 KA relative to UGCAUGU for the second.

Compared with B25, B26 is higher in binding signal: 0.00261 KA relative to UGCAUGU for the first, 0.00796 KA relative to UGCAUGU for the second.

First: B27
Second: B28
The binding signal of the first is lower: 0.00262 KA relative to UGCAUGU for the first, 0.0151 KA relative to UGCAUGU for the second.

Compared with B29, B30 is higher in binding signal: 0.00619 KA relative to UGCAUGU for the first, 0.0116 KA relative to UGCAUGU for the second.

With B31 the binding signal was 0.00602 KA relative to UGCAUGU.
